Reference: paper PMC6919601, “Identification of Plasmodium dipeptidyl aminopeptidase allosteric inhibitors by high throughput screening” (PLoS ONE, 2019)
Screen size: about 110,000 compounds; about 230 (0.21%) showed an effect of 50% or more. Some of the results follow.

These molecules were tested against DPAP1 (Plasmodium falciparum, UniProt Q8IIJ9) (assay: primary screen, percent inhibition; read by cleavage of a fluorogenic dipeptide substrate; higher = more effect of the substance).
Design: species or system P. falciparum D10 trophozoite lysates; single well
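Also: 30 min substrate incubation versus DMSO and 10 µM JCP410 controls.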

Sequence of DPAP1 (Q8IIJ9 whole entry, looked up): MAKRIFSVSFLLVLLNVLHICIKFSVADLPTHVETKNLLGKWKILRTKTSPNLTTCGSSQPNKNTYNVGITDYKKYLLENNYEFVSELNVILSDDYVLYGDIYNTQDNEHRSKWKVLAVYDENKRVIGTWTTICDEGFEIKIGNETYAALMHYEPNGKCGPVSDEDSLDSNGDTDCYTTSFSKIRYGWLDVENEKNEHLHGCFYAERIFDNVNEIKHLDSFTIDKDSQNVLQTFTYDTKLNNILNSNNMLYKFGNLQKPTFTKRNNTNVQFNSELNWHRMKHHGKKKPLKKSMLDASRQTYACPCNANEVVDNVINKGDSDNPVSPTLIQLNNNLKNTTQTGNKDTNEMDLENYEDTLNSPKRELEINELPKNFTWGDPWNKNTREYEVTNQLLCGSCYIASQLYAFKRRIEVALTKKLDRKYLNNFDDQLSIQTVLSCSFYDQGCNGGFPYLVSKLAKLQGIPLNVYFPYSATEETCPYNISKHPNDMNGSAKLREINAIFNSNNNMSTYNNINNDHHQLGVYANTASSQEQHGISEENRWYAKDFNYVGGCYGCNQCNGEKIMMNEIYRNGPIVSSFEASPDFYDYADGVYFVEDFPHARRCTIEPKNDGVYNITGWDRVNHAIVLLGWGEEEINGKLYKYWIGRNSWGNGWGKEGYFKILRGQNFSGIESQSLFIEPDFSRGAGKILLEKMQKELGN

| Structure (SMILES) | % Inhibition @ 10 uM [%] |
| --- | --- |
| O=C(/C=C/c1ccccc1)c1cccc(N2C(=O)C3C4C=CC(C4)C3C2=O)c1 (centres unmarked) | -3.32 |
| Cc1n[nH]c(C)c1S(=O)(=O)N1CCC(C(=O)NCCc2ccccc2)CC1 | -9.46 |
| COc1cc(C2C3=C(CCCC3=O)OC3=C2C(=O)CCC3)ccc1OC1CCCC1 | 1.88 |
| CC1CCC(NCC2CCCO2)CC1 (centres unmarked) | -3.6 |
| COc1ccc(C(=O)Nc2ccc(C)cn2)cc1OC | 2.43 |
| OC1=C2C(=Nc3nc(SCc4ccccc4Cl)nn3C2c2cccnc2)CCC1 (centres unmarked) | 9.37 |
| O=C(O)c1ccccc1C(=O)N1CCN(CCO)CC1 | -8.41 |
| CC(C)CC(=O)N1c2ccccc2N=C2CC(C)(C)CC(O)=C2C1c1ccco1 (centres unmarked) | -2.07 |
| CCOC(=O)CN(C)Cc1ccccc1Br | -2.34 |
| O=C1N=C(N2CCCC2)S/C1=C\c1ccccc1 | -0.759 |
| Cc1ccccc1N1CCN(Cc2coc3ccccc3c2=O)CC1 | -3.77 |
| c1nc2sc3c(c2c2nnnn12)CCC3 | -1.5 |
| CCN(CC)S(=O)(=O)c1ccc(NC(=O)COc2ccc(Br)cc2C)cc1 | -4.63 |
| Cc1cc(Br)ccc1S(=O)(=O)N1CCOCC1 | 3.82 |
| CCCN(CCC)S(=O)(=O)c1cc(-c2onc(C)c2C)ccc1C | 2.35 |
| COc1ccccc1C1=N/C(=C\c2c(F)cccc2Cl)C(=O)O1 | 8.79 |
| COCC(CN1CCN(C2=NS(=O)(=O)c3ccccc32)CC1)OC(=O)c1ccc(C)cc1 (centres unmarked) | -4.51 |
| N/C(=N\N=C\c1cc(Br)ccc1O)c1nonc1N | -10.9 |
| CCn1cc(Cl)c(C(=O)N2N=C(c3ccc4c(c3)OCCO4)CC2c2ccccc2O)n1 (centres unmarked) | 0.658 |
| Clc1ccc2nc3c4ccccc4cnn3c2c1 | -1.11 |
| CCc1nc2ccc(C(=O)NC)cc2nc1CC | 2.93 |
| Cc1ccc2c(c1)-c1c(cnn1CC(=O)N1CC(C)CC(C)C1)CO2 (centres unmarked) | 14.5 |
| CC1=C(C(=O)Nc2ccccc2C)C(c2cccc(F)c2)C2=C(O)CCCC2=N1 (centres unmarked) | -6.36 |
| O=C(NCCc1ccc(Cl)cc1)c1noc2c1COc1ccccc1-2 | 82.6 |
| CNC(=O)c1cc(S(=O)(=O)NC2CCCCCC2)ccc1C | -7.14 |
| O=C(NCc1ccccn1)c1ccc2c(c1)sc1nc(-c3ccc(F)cc3)cn12 | 5.88 |

| Structure (SMILES) | % Inhibition @ 10 uM [%] |
| --- | --- |
| COc1cccc(C(=O)N2CCN(CCCc3ccccc3)CC2)c1 | 3.47 |
| O=C(O)/C=C\C(=O)Nc1ccc(C(=O)O)cc1 | -1.8 |
| N#Cc1nnc2ccnn2c1N | -2.87 |
| COc1ccc(-c2nc(CSCC(=O)N3CCC(Cc4ccccc4)CC3)c(C)o2)cc1OC | 2.37 |
| CCCNC(=O)C1Sc2nnc(C)n2NC1c1ccc(OCC)cc1 (centres unmarked) | 4.93 |
| O=C(Nc1ccc(O)cc1)c1cccc([N+](=O)[O-])c1 | 2.94 |
| CC(c1nc2ccccc2n1C)C(O)(c1ccccc1)c1ccccc1 (centres unmarked) | -6.08 |
| CN1CCC(=NNC(=O)C(=O)Nc2ccc(Cl)c(Cl)c2)CC1 | 6.66 |
| Cc1ccc(C(=O)COc2cc3oc(=O)cc(C)c3cc2Cl)cc1 | 4.47 |
| CC(C)OCCCn1c(=O)c2ccccc2n2c(CCC(=O)NC3CCCCC3)nnc12 | -1.44 |
| COc1cc(C2c3c(-c4ccccc4O)n[nH]c3C(=O)N2CCO)cc(Br)c1O (centres unmarked) | -4.95 |
| CCc1ccc(C2=CC(c3cccc(C)c3)n3ncnc3N2)cc1 (centres unmarked) | -5.19 |
| COc1ccc2[nH]c(SCCN3CCCC3)nc2c1 | -1.66 |
| CCc1c(C)nn(-c2ccc(Oc3ccccc3)c(S(=O)(=O)O)c2)c1O | -0.0735 |
| COc1cc(OC)cc(C(=O)Nc2ccc(Cc3ccncc3)cc2)c1 | -0.303 |
| CC1CC(C)CN(C(=O)c2nn(C)c3c2CSc2ccccc2-3)C1 (centres unmarked) | 0.00665 |
| CCOc1ccc(Oc2cc(N)cc(Oc3cccnc3)c2)cc1 | -7.99 |
| Cc1ccccc1OCC(=O)NC1CCCCCC1 | -1.61 |
| N#Cc1c(N)n(-c2ccc(Cl)cc2)c2nc3ccccc3nc12 | -5.5 |
| CN1CCN(C(=O)c2ccc(CSc3nc4ccncc4n3Cc3ccc(F)cc3)cc2)CC1 | 4.22 |
| Cc1cc(C)c2c(n1)nn1c(C)c(CCC(=O)NCCCc3ccccc3)c(C)nc21 | 0.953 |
| CCOC(=O)c1c(C)nc(C)c(C(=O)OCC)c1-c1ccccc1 | 1.57 |
| CC(=O)Nc1ccc(C(=O)Nc2cccc([N+](=O)[O-])c2)cc1 | -5.57 |
| COc1ccc(N(CC(=O)Nc2cccc(C)c2)S(=O)(=O)c2ccccc2)cc1OC | -12.7 |
| CC(C)CNc1nc(NC(C)(C)C)nc(Oc2ccc(=O)n(C)n2)n1 | -8.78 |
| COC(=O)C1=CN(C)C=C(C(=O)OC)C1c1cccc(C)c1 | -3.21 |

| Structure (SMILES) | % Inhibition @ 10 uM [%] |
| --- | --- |
| Cn1c2ccccc2c2cnn(CC(=O)NCCCc3ccccc3)c(=O)c21 | -3.9 |
| Cc1sc2nc(SCC(=O)NCCOCCO)n(C)c(=O)c2c1C | -5.34 |
| O=C(CSc1nnc(-c2cccnc2)o1)c1cc2ccccc2oc1=O | -2.63 |
| CCN(CC)c1ccc(NC(=O)C2Cc3ccccc3CN2S(=O)(=O)c2cccs2)cc1 (centres unmarked) | 0.755 |
| CC(=O)C1=C(C)N=C(S)NC1c1cc([N+](=O)[O-])ccc1O (centres unmarked) | 1.66 |
| Cc1nc(Cl)c2cc(-c3ccccc3)sc2n1 | -10.3 |
| CCN(CC)CCN(C)C(C)CCc1ccccc1 (centres unmarked) | 1.83 |
| NC(=O)c1c(NC(=O)c2ccc(F)cc2)sc2c1CCCC2 | -4.58 |
| C#CC(C)(O)CCc1c(C)cc(OC)c(C)c1C (centres unmarked) | 0.878 |
| CC(C)(C)NC(=O)c1oc2ccccc2c1NC(=O)C1CCCC1 | -4.8 |
| N#CC1=C(N)Oc2[nH]nc(-c3ccccc3)c2C1c1ccc(F)cc1 (centres unmarked) | 2.46 |
| CCOC(=O)C1=C(N)OC2=C(C(=O)CCC2)C1c1cc(Cn2cnc3ccccc32)cs1 (centres unmarked) | 4.57 |
| COc1cc(-c2cc(NC(=O)Cn3ncc4c5ccccc5nc-4c3O)on2)cc(OC)c1OC | 1.66 |
| COC(=O)C1=C(C)N(CC(C)C)C(=O)/C1=C\c1cc(C)n(-c2ccc(OC)c(Cl)c2)c1C | -0.0626 |
| CSc1ncc(C(=O)NCc2cccc(C)c2)c(C)n1 | 3.85 |
| Cc1nc2cc(-n3cc4c(c3-c3ccc(Br)cc3)c(=O)n(C)c(=O)n4C)ccc2n1C | -0.0678 |
| Cn1ccnc1Sc1nc2c(c(=O)n(C)c(=O)n2C)n1Cc1cccc(Cl)c1 | 5.65 |
| COc1ccc(-c2cc(C(F)(F)F)c3c(N)c(C#N)sc3n2)cc1 | -0.994 |
| COCCNC(=O)COCc1cc(-c2ccc3c(c2)OCO3)on1 | 1.6 |
| Cc1ccc(CNC(=O)Cn2c3ccccc3c3cnnc(O)c32)cc1 | 4.83 |
| CC1=C(C(=O)Nc2ccc(C)cc2)C(c2ccccc2F)NC(=O)N1 (centres unmarked) | -3.5 |
| Cc1ccc(CCNS(=O)(=O)c2c[nH]cn2)cc1 | 1.23 |
| Cc1ccc(CS(=O)(=O)CCC(=O)NCCCOC(C)C)cc1 | -2.99 |
| Cc1ccc(S(=O)(=O)Nc2cccc(C(=O)NCCO)c2)cc1 | -2.77 |
| CCN(CC)S(=O)(=O)c1cccc(-c2cn3cccnc3n2)c1 | -0.25 |
| Cc1ccc(S(=O)(=O)N2CCCC2C(=O)NCCc2nc3ccccc3[nH]2)cc1 (centres unmarked) | 3.25 |

| Structure (SMILES) | % Inhibition @ 10 uM [%] |
| --- | --- |
| CCCN(CCC)CCCNc1ccc2nnc(-c3ccc(F)cc3)n2n1 | 4.95 |
| CCc1nn(C(C)C(=O)NCCC2=CCCCC2)c(=O)c2cc3occc3n12 (centres unmarked) | 1.38 |
| COc1ccc(CCNS(=O)(=O)c2cc(Br)cnc2N)cc1OC | -2.84 |
| CC(C)CCN1C(=O)S/C(=C/c2ccc(N(C)C)cc2)C1=O | -6.25 |
| COc1cccc(/C=C2\N=C(c3ccc(Cl)c(Cl)c3)OC2=O)c1OC | 2.14 |
| CCOC(=O)N1CCN(c2c(NCCc3ccc(OC)c(OC)c3)c(=O)c2=O)CC1 | 3.54 |
| CS(=O)(=O)N(CC(=O)N1CCN(Cc2ccccc2)CC1)c1ccccc1F | -13.5 |
| CC(C)OCCCNC(=O)Cn1cnc2onc(-c3ccc(F)cc3)c2c1=O | 0.186 |
| Cc1cc(O)nc(SCc2nc(-c3ccc(Cl)cc3)no2)n1 | 2.31 |
| CC(C)=CCC[C@H](C)CCN1CCOCC1 | -3.15 |
| NS(=O)(=O)c1ccc(-c2ccc(/C=c3\sc4nc(=O)c(-c5ccccc5)nn4c3=O)o2)cc1 | 5.12 |
| CCN(CC)C(=O)C1CCCN(Cc2cccs2)C1 (centres unmarked) | 3.16 |
| Cc1cc2c(o1)-c1c(oc3ccc(Cl)cc13)CCC2C (centres unmarked) | 3.32 |
| O=CN1CCN(Cc2c(Cl)cccc2Cl)CC1 | -0.0494 |
| COc1ccc(CNC(=O)c2cc3cc4ccc(OC)cc4nc3s2)cc1 | -0.984 |
| O=C(/C=C/c1ccc2c(c1)OCO2)Nc1ccccc1Cl | -3.94 |
| O=C1C=CC(=O)N1c1ccc(Oc2ccccc2)cc1 | -0.999 |
| N#C/C(=C\c1ccccc1Cl)c1nc(-c2cccs2)cs1 | 4.26 |
| Cn1c(COc2cccc3ccccc23)nc2ccccc21 | -8.05 |
| CCOc1ccc(-n2c(C)nnc2SCc2nc(-c3ccc(C)cc3)no2)cc1 | -4.02 |
| CCOC(=O)N1CCC(NC(=O)c2nn(C)c3c2CS(=O)(=O)c2ccccc2-3)CC1 | -0.495 |
| CCOc1ccc(S(=O)(=O)N2CCN(Cc3ccccc3)CC2)c2ccccc12 | 7.63 |
| O=S(=O)(NCc1ccc(C(F)(F)F)cc1)c1ccc(-n2cnnn2)cc1 | 0.635 |
